Data from patent publication US20220025069A1 (Hoffmann-La Roche, published 2022).

Key:
[1] = target: T1, human 4-1BB (CD137), cell-surface-expressed on Jurkat-hu4-1BB-NFkB-luc2 reporter cell line (human, UniProt Q07011 24-186); assay: cell-based or functional assay; set-up: AUC of activation curve, NFκB-luciferase in Jurkat-hu4-1BB-NFκB-luc2, crosslinking by WM-266-4 cells: unit not given beside the values
[2] = target: T1, human 4-1BB (CD137), …; assay: cell-based or functional assay; set-up: unit not given beside the values
[3] = target: T2, human Fibroblast Activation Protein (FAP), cell-surface-expressed on NIH/3T3-huFAP clone 19 cells (human, UniProt Q12884 1-760); assay: flow cytometry, NIH/3T3-huFAP clone 19 cells, gMFI curve
T2 construct: also called FAP-expressing cells

[4] = target: T1, human 4-1BB (CD137), …; assay: flow cytometry, Jurkat-hu4-1BB-NFkB-luc2 cells, gMFI curve
[5] = target: T1, human 4-1BB (CD137), …; assay: as above; remark: listed apart in the source
[6] = target: T1, human 4-1BB (CD137), …; assay: flow cytometry, Jurkat-hu4-1BB-NFkB-luc2 cells, PE anti-human Fc detection

T1 sequence (Q07011 24-186): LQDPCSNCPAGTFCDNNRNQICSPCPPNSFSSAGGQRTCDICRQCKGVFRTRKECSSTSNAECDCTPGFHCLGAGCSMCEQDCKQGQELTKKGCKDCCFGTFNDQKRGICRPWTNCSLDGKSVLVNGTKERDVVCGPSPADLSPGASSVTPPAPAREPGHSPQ

B1: untargeted 2+2 DP47 x 4-1BB lipocalin huIgG4 SP control molecule (bispecific antibody)
heavy: [about 100 residues not listed]GSGFDYWGQGTLVTVSSASTKGPSVFPLAPCSRSTSESTAALGCLVKDYFPEPVTVSWNSGALTSGVHTFPAVLQSSGLYSLSSVVTVPSSSLGTKTYTCNVDHKPSNTKVDKRV[human IgG4 Fc with S228P F234A L235A (EU numbers) not listed]GGGGSGGGGSGGGGSQDSTSDLIPAPPLSKVPLQQNFQDNQFHGKWYVVGQAGNIRLREDKDPIKMMATIYELKEDKSYDVTMVKFDDKKCMYDIWTFVPGSQPGEFTLGKIKSFPGHTSSLVRVVSTNYNQHAMVFFKFVFQNREEFYITLYGRTKELTSELKENFIRFSKSLGLPENHIVFPVPIDQCIDG
light: [about 100 residues not listed][about 100 residues not listed]
notes: Untargeted control; also called DP47 x 4-1BB lipocalin huIgG4 SP 2+2
For B1, the “AUC of activation curve, NFκB-luciferase in Jurkat-hu4-1BB-NFκB-luc2, crosslinking by NIH/3T3-huFAP clone 19 cells” value [1] was 1370, the “AUC of activation curve, NFκB-luciferase in Jurkat-hu4-1BB-NFκB-luc2, crosslinking by WM-266-4 cells” value [1] was 355 and the “AUC of activation curve, NFκB-luciferase in Jurkat-hu4-1BB-NFκB-luc2, crosslinking by KPL4 cells” value [2] was 78. The “AUC of activation curve, NFκB-luciferase in Jurkat-hu4-1BB-NFκB-luc2, crosslinking by NCI-N87 cells” value [2] was 394, the “AUC of activation curve, NFκB-luciferase in Jurkat-hu4-1BB-NFκB-luc2, crosslinking by SK-Br3 cells” value [2] was 101 and the “Area under the curve (AUC) of binding curve” value (“Area under the curve (AUC)” below) [3] was 579. The “Area under the curve (AUC)” value [4] was 774, the “Area under the curve (AUC)” value [5] was 1880 and the EC50 [6] was 0.92 nM.

Like-named read-outs stand apart in the source and are kept apart here.
